# Among all 290,000 compounds or so, about 2,100 (0.72%) were called active. This list was built around the results that the source calls inconclusive (neither active nor inactive); the mix of calls is not that of the screen. Calls come from the whole dose curve; as a rule, active = well fitted inhibition curve with a large enough effect; inconclusive = small, poorly fitted or top-dose-only effect, or effect the other way; inactive = flat fitted curve, though single readings scatter. Potencies of inconclusive entries are doubtful fits and often do not repeat. Non-standard residues stand in square brackets, D forms with d. Residues, ends and D or L forms follow the SMILES beside them. *: point of attachment. Nle = CCCC[C@H](N)C(=O)O; Boc = CC(C)(C)OC(=O)*
# Target: Fructose-bisphosphate aldolase (Giardia intestinalis (strain ATCC 50803 / WB clone C6)) (UniProt A8B2U2)
# Assay: qHTS Assay for Inhibitors of Fructose-1,6-bisphosphate Aldolase from Giardia Lamblia; note: nearly all actives have a fitted effect of over 55% in size
# Details: purified Giardia FBPA; activity, negative = inhibition: at 59.6 µM (top of the series) unless noted
# Method in brief: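 Giardia FBPA (40 nM reagent) was preincubated 10 min at RT with compound (up to 57.5 uM final), then substrate plus GAPDH/TPI/NAD/arsenate coupling system with diaphorase/resazurin was added; resorufin fluorescence (525/598 nm) was read after 20 min.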
# % is set by controls: 0 for no effect and ±100 for the full control effect; potency is the fitted concentration of half-maximal effect; tags give direction and shape of the fitted curve.
# UniProt A8B2U2, sequence (A8B2U2 whole entry, looked up): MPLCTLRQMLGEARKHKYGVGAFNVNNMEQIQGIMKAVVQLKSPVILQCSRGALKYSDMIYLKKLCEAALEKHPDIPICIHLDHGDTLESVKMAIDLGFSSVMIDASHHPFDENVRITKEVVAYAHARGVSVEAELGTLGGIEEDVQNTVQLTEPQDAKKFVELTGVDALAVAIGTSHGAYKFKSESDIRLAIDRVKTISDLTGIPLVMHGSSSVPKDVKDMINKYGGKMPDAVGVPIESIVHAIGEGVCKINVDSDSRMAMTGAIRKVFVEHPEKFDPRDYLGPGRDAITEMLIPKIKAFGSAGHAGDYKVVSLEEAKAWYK
Structure (SMILES),Potency,"activity, negative = inhibition"
O=[N+]([O-])C(=c1ccc2c(c1)N1C3=C(CCCC3)CC3CCCCC31N=2)[N+](=O)[O-] (stereo not given),"inconclusive: 19.9 µM [inhibitor, partial curve]",–
N#CC1=C(Nc2ccccc2Cl)SC(c2ccccc2O)NC1=O (stereo not given),"inconclusive: 11.2 µM [inhibitor, partial curve]",–
COc1ccc(F)cc1S(=O)(=O)Nc1ccc(C)cc1,"inconclusive: 17.7 µM [inhibitor, single point]",–
COc1cccc(CN(C)C(=O)CCc2nnc(-c3ccsc3)o2)c1,"inconclusive: 17.7 µM [inhibitor, partial curve]",–
Cc1ccc(C(NC(=O)C2CCCCC2)c2c(O)ccc3ccccc23)cc1 (stereo not given),–,inactive: -3.63%
Cn1c2ccccc2c(=O)c2c(=O)n(Cc3ccco3)c(-c3ccc(Cl)cc3Cl)nc21,–,inactive: 0.455%
Cc1cc(Oc2cc(NN3CCCCC3)c([N+](=O)[O-])cc2[N+](=O)[O-])c(C(=O)c2ccccc2)cc1Cl,–,inactive: -0.0275%
Nc1nnc(SCC(=O)c2ccc3ccccc3c2)s1,–,inactive: -7.03%
O=C(Nc1ccc2c(c1)OCO2)N1CCC(CO)(CC2CCCCO2)CC1 (stereo not given),–,inactive: -6.24%
CC(=O)OCC1=C(C(=O)O)N2C(=O)C(NC(=O)C(C)Cn3nc(C)c(Cl)c3C)C2SC1 (stereo not given),–,inactive: -16.5%
COc1ccc(CNC(=O)C(c2ccc(C)o2)N(Cc2cccs2)C(=O)Cc2cccs2)cc1 (stereo not given),"inconclusive: 19.9 µM [inhibitor, single point]",–
C/[N+]([O-])=C/c1c(OCc2ccccc2)ccc2ccccc12,–,inactive: 1.28%
CCOc1ccc(CN2CCCN(C)CC2)cc1,"inconclusive: 17.7 µM [inhibitor, single point]",–
COC1=C2C[C@@H](C)C[C@H](OC)[C@H](O)[C@@H](C)/C=C(\C)[C@H](OC(N)=O)[C@@H](OC)/C=C\C=C(/C)C(=O)NC(=CC1=O)C2=O,active: 3.54 µM,–
COc1ccc(CN2CCC(Cc3ccccc3)CC2)c(C)c1C,"inconclusive: 10 µM [inhibitor, partial curve]",–
Cc1cc(C(=O)CCl)c(C)n1CCc1ccc(F)cc1,–,inactive: -4.63%
COc1ccc(CCNCc2ccccc2)cc1,"inconclusive: 22.4 µM [inhibitor, partial curve, poor fit]",–
COc1ccc(C2=NN(C(=O)CCC(=O)O)C(c3cccs3)C2)cc1 (stereo not given),"inconclusive: 31.5 µM [activator, single point]",–
O=C(NCc1ccccc1)c1ccc(N2CCC3(CC2)CC(c2ccc(Cl)cc2)=NO3)c([N+](=O)[O-])c1,–,inactive: -1.71%
O=C(NCCO)Nc1ccc2nc(-c3ccco3)c(-c3ccco3)nc2c1,–,inactive: -58.7%
CCN(CC)CCn1c(=N)n(CC(O)COc2cccc(C)c2)c2ccccc21 (stereo not given),"inconclusive: 17.7 µM [inhibitor, single point]",–
Cc1cc(C)c(OCC(O)CN2CCN(C(=O)c3ccccc3)CC2)c(C)c1 (stereo not given),"inconclusive: 39.8 µM [inhibitor, partial curve]",–
Cc1nn2c(N)csc2nc1=O,"inconclusive: 12.6 µM [inhibitor, partial curve]",–
Cc1cccc(-c2nc(NCCCN(C)C)c3ccccc3n2)c1,"inconclusive: 15.8 µM [inhibitor, partial curve]",–
C#Cc1cccc(NC(=O)CSc2nnc(-c3ccc(C(F)(F)F)cn3)o2)c1,"inconclusive: 17.7 µM [inhibitor, single point]",–

Structure (SMILES),Potency,"activity, negative = inhibition"
O=C(NC(=S)Nc1ccccc1C(=O)O)c1ccc2ccccc2c1,"inconclusive: 19.9 µM [inhibitor, single point]",–
COc1ccc(/C=C2\S/C(=N/S(=O)(=O)c3cccs3)NC2=O)cc1,"inconclusive: 17.7 µM [activator, single point]",–
CC1CCN(CCCCOc2ccccc2-c2ccccc2)CC1,"inconclusive: 15.8 µM [inhibitor, partial curve]",–
COC(=O)Cc1[nH]c(=S)[nH]c1C(=O)OC,"inconclusive: 17.7 µM [inhibitor, partial curve]",–
COc1ccc(OCC(=O)NNC(=O)c2cccs2)cc1,"inconclusive: 3.97 µM [inhibitor, single point]",–
CCOc1ccccc1C(=O)Nc1nccs1,–,inactive: 0.836%
Fc1cccc(CN2CCSCC2)c1,"inconclusive: 17.8 µM [inhibitor, partial curve]",–
CO[C@]12C(COC(N)=O)C3=C(C(=O)C(C)=C(N)C3=O)N1CC1NC12 (stereo not given in full),"inconclusive: 9.98 µM [inhibitor, partial curve]",–
COc1ccc(NC(=S)NCCCN2CCCC2=O)c(OC)c1,"inconclusive: 31.5 µM [inhibitor, single point]",–
Cc1ccc(NC(=O)CNCc2ccccc2)cc1Br,"inconclusive: 19.9 µM [inhibitor, partial curve]",–
CCN(C(=O)c1ccco1)c1nc(CC(=O)Nc2ccc(Cl)cc2)cs1,"inconclusive: 17.7 µM [inhibitor, partial curve]",–
Cc1ccc(N2C(=O)CC(NNc3nc4ccccc4s3)C2=O)cc1C (stereo not given),–,inactive: -2.7%
O=C(CCCCCNC(=O)c1ccccc1)N/N=C/c1ccccc1O,"inconclusive: 4.46 µM [inhibitor, full curve]",–
O=C(O)/C=C\C(=O)Nc1ccc(Oc2ccc(Br)cc2)cc1,"inconclusive: 17.7 µM [activator, single point]",–
CNC(=O)/C(=C\c1ccc2c(c1)OCO2)NC(=O)c1ccc(Br)cc1,–,inactive: 2.8%
Oc1cccc2c(NC(=S)Nc3ccc(OC(F)F)cc3)cccc12,"inconclusive: 9.98 µM [inhibitor, partial curve]",–
COc1cc(C2=NOC(C(=O)Nc3cccnc3)C2)cc(OC)c1OC (stereo not given),–,inactive: 4.96%
CC(NCC(=O)Nc1cc(S(=O)(=O)N2CCCCCC2)ccc1Cl)c1ccccc1 (stereo not given),"inconclusive: 17.7 µM [inhibitor, partial curve]",–
O=[N+]([O-])/C(=C\Nc1ccc(F)cc1F)S(=O)(=O)c1ccccc1,–,inactive: -5.45%
C=CCOc1ccc(CN(C)CC(O)COc2cccc3ccccc23)cc1 (stereo not given),"inconclusive: 15.8 µM [inhibitor, partial curve, poor fit]",–
O=c1[nH]c2ccccc2c(O)c1O,active: 3.97 µM,–
CCn1c(SCc2nc3cc(OC)c(OC)cc3c(=O)[nH]2)nc2ccccc21,–,inactive: -2.32%
CN(C)c1cccc2c1C(=O)c1ccccc1C2=O,"inconclusive: 11.2 µM [inhibitor, partial curve]",–
COCCN(C(=S)Nc1ccc(OC)c(Cl)c1)C1CCN(C(C)C)CC1,active: 11.2 µM,–
O=C1NC(=O)C(c2cccs2)(c2cccs2)N1,"inconclusive: 25.1 µM [inhibitor, single point]",–

Structure (SMILES),Potency,"activity, negative = inhibition"
O=C1NC(=O)/C(=C\c2ccc(Oc3ccc([N+](=O)[O-])cn3)cc2)S1,–,inactive: -6.78%
O=C(Nc1nnc(SCc2ccccc2)s1)c1ccco1,"inconclusive: 19.9 µM [activator, partial curve]",–
COc1cc(/C=C2\SC(=S)N(CCC(=O)N3CCCCC3)C2=O)cc(OC)c1OC,–,inactive: 5.15%
CC(C)NS(=O)(=O)c1ccc(NC(=O)Cc2cccs2)cc1,–,inactive: 6.12%
O=C1C(Cl)=C(Nc2ccccc2)C(=O)c2ccccc21,"inconclusive: 0.561 µM [inhibitor, full curve]",–
COc1ccccc1N(CC(=O)Nc1ccc2c(c1)OCCO2)S(C)(=O)=O,–,inactive: -0.0711%
N#C/C(=C\c1cccs1)c1nc2ccccc2[nH]1,–,inactive: -12.7%
COc1ccccc1CNCc1cc(OC)c(OC)c(OC)c1,"inconclusive: 19.9 µM [inhibitor, partial curve]",–
COc1ccccc1C1CCN(Cc2cccc3ccccc23)CC1,–,inactive: 2.23%
Cc1cccc(C)c1NC(=O)C(Cl)=C(Cl)Cl,–,inactive: 4.29%
CCCOc1ccc(-c2c(C(=O)N/N=C/c3ccco3)nnn2-c2nonc2N)cc1,–,inactive: 7.42%
Cn1c(=O)[nH]c(=O)c2c1nc(Br)n2CCCSc1nc2ccccc2o1,–,inactive: 1.14%
CC(C)NS(=O)(=O)c1ccc(CCC(=O)NCc2ccccn2)cc1,–,inactive: -0.866%
CCCC[C@H](NC(=O)[C@@H]1CCCN1C(=O)[C@H]1CCCN1C(=O)[C@H](Cc1ccccc1)NC(=O)[C@@H](Cc1c[nH]c2ccccc12)NC(=O)[C@H](C)NC(=O)[C@H](CCCN=C(N)N)NC(=O)OC(C)(C)C)C(N)=O (Boc-RA[dW]F[dP]P[Nle]-NH2),"inconclusive: 15.8 µM [inhibitor, single point]",–
COc1cc(C)c(CNc2ccc(OC)c(OC)c2)cc1C,"inconclusive: 1.12 µM [inhibitor, full curve]",–
COc1ccc(/C=N/NC(=O)c2cc(-c3ccc4c(c3)OCO4)n[nH]2)cc1OC,–,inactive: 3.56%
Cc1ccc(C(=O)Nc2ncc([N+](=O)[O-])s2)cc1,active: 15.8 µM,–
C=CCc1cccc(OC)c1OCCOCCn1ccnc1,"inconclusive: 11.2 µM [inhibitor, partial curve]",–
Cc1ccc(/C(N)=N/OC(=O)CCC2CCCCC2)cc1,–,inactive: 2.28%
N#Cc1c(N2CCOCC2)nsc1-c1ccc(C(F)(F)F)cc1,–,inactive: -2.04%
O=C(c1cnccn1)N1CCc2ccccc21,–,inactive: -13.6%
CC(C)c1onc(C(=O)NCc2ccccc2)c1[N+](=O)[O-],–,inactive: 0.334%
Cc1ccccc1NN=Nc1nc2c([nH]1)c(=O)n(C)c(=O)n2C,–,inactive: -21.3%
N#CC1=C(S)N(c2ccc(F)cc2)C(c2ccco2)NC1=O (stereo not given),"inconclusive: 25.1 µM [inhibitor, single point]",–
CC(C)[C@]1(NC(=O)[C@@H]2C=C3c4cccc5[nH]cc(c45)C[C@H]3N(C)C2)O[C@@]2(O)C3CCCN3C(=O)[C@H](Cc3ccccc3)N2C1=O (stereo not given in full),"inconclusive: 6.29 µM [inhibitor, full curve]",–

# — PubChem BioAssay AID2451 (National Center for Advancing Translational Sciences (NCATS), 2010)
